According to PubChem BioAssay AID624417 (National Center for Advancing Translational Sciences (NCATS), 2012):
The whole screen tested about 410,000 compounds, of which about 6,400 (1.6%) were called active. Inconclusive results, whose numbers are uncertain, are shown with a selection of clear calls. The call rests on the fitted dose curve; in most records, active means well fitted inhibition curve with a large enough effect; inconclusive means small, poorly fitted or top-dose-only effect; inactive means no such curve, though single readings can be large or run the other way. Potencies of inconclusive entries are left out as doubtful fits.

molecular target: Glucagon-like peptide 1 receptor (Homo sapiens) (UniProt P43220); experiment: qHTS of GLP-1 Receptor Inverse Agonists (Inhibition Mode); conditions: HEK293 GLP-1R CRE-luciferase, luminescence, 24 h, GLP-1R form is constitutively active; activity change, negative = inhibition: at 38.3 µM (top of the series) unless noted; further: nearly all actives have a fitted effect of over 55% in size
Procedure, shortened: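 Using stably transfected HEK293 (constitutively active GLP-1R, cAMP-luciferase reporter), compounds were incubated 24 hr and luciferase measured by luminescence.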
On the % scale 0 is the no-effect control and ±100 the full control effect; potency means the concentration at half of the fitted maximal effect; tags describe the fitted curve by direction and shape.

Sequence of UniProt P43220 (P43220 whole entry, looked up): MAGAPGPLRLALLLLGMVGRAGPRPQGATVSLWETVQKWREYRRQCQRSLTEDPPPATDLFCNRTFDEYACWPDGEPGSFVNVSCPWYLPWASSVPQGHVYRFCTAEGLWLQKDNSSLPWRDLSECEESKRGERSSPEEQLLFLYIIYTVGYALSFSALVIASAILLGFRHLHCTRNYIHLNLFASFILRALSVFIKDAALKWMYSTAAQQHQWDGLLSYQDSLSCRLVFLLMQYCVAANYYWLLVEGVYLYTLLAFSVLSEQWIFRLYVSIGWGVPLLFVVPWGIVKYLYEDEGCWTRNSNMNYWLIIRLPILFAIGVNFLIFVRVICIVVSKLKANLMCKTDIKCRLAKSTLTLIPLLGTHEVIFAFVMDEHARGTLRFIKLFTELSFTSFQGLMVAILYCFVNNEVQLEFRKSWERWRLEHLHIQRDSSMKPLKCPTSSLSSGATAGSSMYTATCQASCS

SMILES | Potency | activity change, negative = inhibition
Cc1ccc(CNC(=O)C(=O)c2cn(CC(=O)N3CCCC3)c3ccccc23)cc1 | inconclusive [inhibitor, single point] | 
Cc1ccccc1-c1nc(CS(=O)(=O)CC(=O)NCCCN2CCN(C)CC2)c(C)o1 | inconclusive [inhibitor, partial curve, poor fit] | 
CC(=O)Nc1ccc(S(=O)(=O)Nc2ccc(Cc3ccncc3)cc2)cc1 |  | inactive: 2.77%
COc1ccc(C(=O)NCC(=O)OCc2cc(=O)n3nc(C4CCCCC4)sc3n2)cc1 |  | inactive: -4.83%
COc1ccc(-c2cc(C(F)(F)F)n3nc(C(=O)O)nc3n2)cc1 |  | inactive: 33.8%
CCN(CC)CCCN(C(=O)c1ccc(F)cc1)c1nc(-c2ccc(OC)cc2)cs1 | inconclusive [inhibitor, partial curve, poor fit] | 
CCc1cc(CC)c(/C=N/NC(N)=O)c(CC)c1 | inconclusive [inhibitor, single point] | 
O=C(C1=NN(c2ccccc2)C2C(=O)N(c3ccccc3)C(=O)C12)c1ccccc1 (configuration not stated) |  | inactive: 8.63%
COc1ccc(OCc2cc(-c3ccc(Cl)cc3)no2)cc1 |  | inactive: 29.6%
O=C(Nc1nnc(S(=O)(=O)N2CCCc3ccccc32)s1)c1ccc(Cl)cc1 | inconclusive [inhibitor, partial curve, poor fit] | 
c1ccc(-c2ccc(C3CCCN3)cc2)cc1 (configuration not stated) | inconclusive [inhibitor, single point] | 
Cc1cc(NC(=O)COC(=O)c2c(Cl)cccc2Cl)no1 | inconclusive [inhibitor, full curve] | 
O=C(C1CCCCC1)N(Cc1cccnc1)c1nc2ccc(Cl)cc2s1 |  | inactive: -5.95%
CC(C)C1CC(CCNCc2ccc3c(c2)OCO3)(c2ccccc2)CCO1 (configuration not stated) | inconclusive [inhibitor, partial curve, poor fit] | 
C/C(=C\c1cccc(Cl)c1)C(=O)c1c(C)cc(C)[nH]c1=O | inconclusive [inhibitor, partial curve, poor fit] | 
Cc1ccccc1NC(=S)N1CCCN(Cc2ccc(F)cc2)C1 | inconclusive [inhibitor, single point] | 
O=C(CN1C(=O)NC2(CCCC2)C1=O)Nc1ccc(OC(F)(F)F)cc1 | inconclusive [inhibitor, partial curve] | 
C=CCc1cc(Cl)ccc1OCCN1CC(C)OC(C)C1 (configuration not stated) | inconclusive [inhibitor, partial curve, poor fit] | 
CCOc1ccc(NCCC(O)c2ccc(F)cc2)cc1 (configuration not stated) |  | inactive: -5.6%
COc1ccc(S(=O)(=O)Nc2ccccc2-c2nnn(CC(=O)Nc3ccccc3OC)n2)cc1 | inconclusive [inhibitor, single point] | 
CC(C)c1ccc(-n2cnn(-c3ncccc3[N+](=O)[O-])c2=O)cc1 | inconclusive [inhibitor, partial curve, poor fit] | 

SMILES | Potency | activity change, negative = inhibition
CCOc1c(OC)cccc1C(=O)NCC1(c2ccccc2)CCCC1 | inconclusive [inhibitor, partial curve, poor fit] | 
COc1ccc(NC(=O)Cn2c(=O)n(Cc3ccco3)c(=O)c3sc4ccccc4c32)cc1OC |  | inactive: 0.397%
CS(=O)(=O)c1ccc(SCC(=O)NC2CCS(=O)(=O)C2)c([N+](=O)[O-])c1 (configuration not stated) |  | inactive: 3.98%
CCC(C)NCCOCCOc1ccc(F)cc1 (configuration not stated) |  | inactive: 0%
CN(Cc1ccccc1)CC1CCCN(CCc2ccccc2F)C1 (configuration not stated) | inconclusive [inhibitor, partial curve, poor fit] | 
COc1ccc(Nc2cc(C(=O)NCCCOC(C)C)c3ccccc3n2)c(OC)c1 | inconclusive [inhibitor, single point] | 
CSCc1cc(N2CCOCC2)nc(-c2ccccc2)n1 | inconclusive [inhibitor, single point] | 
COC(=O)C(NNc1ccccc1C)(NC(=O)c1ccc(F)cc1)C(F)(F)F (configuration not stated) | inconclusive [inhibitor, single point] | 
COC(=O)C1=CN(c2cccc(OCc3ccccc3)c2)C(N)=C(C#N)C1c1cccc(OC)c1OC (configuration not stated) | inconclusive [inhibitor, single point] | 
Cc1nc(NC(=S)NC(=O)c2ccccc2)sc1C | inconclusive [inhibitor, full curve, poor fit] | 
O=C(c1cccs1)c1ccc(-c2cccs2)s1 | inconclusive [inhibitor, single point] | 
CC(C)=C1C2CCC1C1C(=O)N(c3nc(-c4ccccc4)c(C)s3)C(=O)C21 (configuration not stated) | inconclusive [inhibitor, partial curve, poor fit] | 
O=C(Cn1sc2ccccc2c1=O)Nc1ccc(F)cc1 | inconclusive [inhibitor, single point] | 
COc1ccc(Nc2ncc(C(=O)Nc3cccc(OC)c3)c3ccccc23)cc1 | inconclusive [inhibitor, single point] | 
Cc1ccc(-n2ncc(C(=O)NCC3CCN(C4CCCC4)C3)c2C2CCN(C(=O)OC(C)(C)C)CC2)cc1C (configuration not stated) | inconclusive [inhibitor, single point] | 
Cc1cccc(NC(=O)c2ccc(S(=O)(=O)N3CCC(C)CC3)cc2)n1 | inconclusive [inhibitor, partial curve, poor fit] | 
Cc1ccc(Cl)cc1N(C)C(=O)c1sc2nc3n(c(=O)c2c1C)CCCC3 |  | inactive: 4.1%
O=C(CN1CCN(C2CCCCC2)CC1)Nc1ccccc1-c1ccccc1 | inconclusive [inhibitor, partial curve, poor fit] | 
COc1cc(NC(C)CCCN)c2nc(C)ccc2c1Oc1ccc(F)cc1 (configuration not stated) | inconclusive [inhibitor, single point] | 
CC1CC(C)CN(CCCNC(=O)c2ccc3c(c2)N(Cc2ccccc2)C(=O)c2ccccc2S3=O)C1 (configuration not stated) | inconclusive [inhibitor, single point] | 
C/C(=N\Nc1cccc(Cl)c1)C1(C)N(O)C(C)(C)C(c2ccco2)=[N+]1[O-] (configuration not stated) | inconclusive [inhibitor, full curve, poor fit] | 
